# According to PubChem BioAssay (NCATS):
# Inconclusive means that the source gave no clear call. Such entries were picked first, then a sample of the others. For some of these results: Potencies of inconclusive entries are left out as doubtful fits. The source holds several records for some structures; these can differ, active in one and inactive in another. Calls of active or inactive are those of the source. Unless noted, calls come from the whole dose curve; as a rule, active = well fitted curve in the direction sought with a large enough effect; inconclusive = small, poorly fitted or top-dose-only effect, or another doubt; inactive = no such curve, though single readings can be large; an effect the other way counts as inactive or inconclusive.
# Experiments:
# [1] = qHTS Screen of the MIPE 4.0 Collection Against Ewings Sarcoma (EW8) (AID 1259255); note: nearly all actives have a fitted effect of over 35% in size; note: potency is the fitted concentration of half-maximal effect
# In short: (§1)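 Cells plated in serum-containing RPMI (5% FBS) and treated with compound dilutions for 48 h. Readout luminescent viability; normalization relied on vehicle (no inhibition) and media-only columns (full inhibition).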
# [2] = qHTS Screen of the MIPE 4.0 Collection Against Ewings Sarcoma (TC32) (AID 1259256); conditions: TC32 Ewing sarcoma viability, CellTiter-Glo, 48 h; series mostly up to 45.8 µM; note: nearly all actives have a fitted effect of over 45% in size; note: potency is the fitted concentration of half-maximal effect
# In short: as §1
# [3] = Natriuretic polypeptide receptor (hNpr1) antagonism - Pilot counterscreen GloSensor control cell line (AID 1347045; calls by dose curve; note: potency is the fitted concentration of half-maximal effect)
# In short: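 HEK293 cGMP-sensor cells; 2% GloSensor reagent 2 h RT; LOPAC compounds in 1:5 titrations 30-50 min; 50 uM SNP 20 min; luminescence pre-read and post-read.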
# [4] = qHTS Screen of the MIPE 4.0 Collection Against Ewings Sarcoma (TC71) (AID 1259253); note: nearly all actives have a fitted effect of over 40% in size; note: potency is the fitted concentration of half-maximal effect
# In short: as §1
# [5] = Identifying Small Molecule Inhibitors of Pancreatic Cancer Stem Cells (SN12C, Spheroid) (AID 1259360); conditions: Potency: SN12C spheroid viability
# In short: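 Spheroids grown 14 days in stem cell media on hydrogel-coated nonadherent plates; 2D lines seeded directly. Compounds added after 4 h attachment, 48 h at 37C, 5% CO2; CellTiter-Glo luminescence normalized to DMSO (no inhibition) and no-cell wells (full inhibition).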
# [6] = Identifying Small Molecule Inhibitors of Pancreatic Cancer Stem Cells (A278, Adherent) (AID 1259361); conditions: viability (% of control): at 46.1 µM (top of the series);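 note: viability read after 48 h compound exposure; nearly all actives have a fitted effect of over 35% in size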
# In short: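 Pre-formed 14-day tumor spheroids or adherent cells dosed and incubated 48 h, 37C, 5% CO2. Viability assessed by CellTiter-Glo.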
# [7] = Identifying Small Molecule Inhibitors of Pancreatic Cancer Stem Cells (Panc1, Adherent) (AID 1259362); conditions: Potency: viability; series mostly up to 46.1 µM;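 note: compound exposure lasted 48 h before the viability read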
# In short: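 Adherent (2D) versus sphere (3D) formats; spheres generated 14 d in SCM beforehand. Compound transferred by pin tool after 4 h, 48 h incubation, CellTiter-Glo endpoint.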
# [8] = NS1 protein of Zika virus - qHTS assay to identify small molecule inhibitors in human HEK 293 cells (AID 1347053); note: potency is the fitted concentration of half-maximal effect; nearly all actives have a fitted effect of over 55% in size
# In short: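 Read-out is a two-antibody TR-FRET for ZIKV NS1, normalized between uninfected cells and infected cells. Compound added 1 h before MR766 infection at MOI 0.5; human HEK 293 cells incubated 24 h, 37 C.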
# [9] = qHTS assay for cell viability of HEK293 cells (AID 743288); conditions: ATP luminescence (CellTiter-Glo), 18 h; max response: active compounds read low; note: potency is the fitted concentration of half-maximal effect; nearly all actives have a fitted effect of over 50% in size
# In short: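 Steps: plate 2,000 parental HEK293 cells per well; incubate ≥5 h, 37 C; add compounds in DMSO; incubate 18 h, 37 C; add CellTiter-Glo; wait 30 min at room temperature; read luminescence.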
# [10] = target: Atrial natriuretic peptide receptor 1 (Homo sapiens) (UniProt P16066); assay: Natriuretic polypeptide receptor (hNpr1) antagonism - Pilot screen (AID 1347049; calls by dose curve;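 note: HEK293 cells with hNpr1 and GloSensor cGMP luciferase stimulated by 0.1 nM hNppA; agonist-evoked cGMP luminescence read 20 min after hNppA addition; potency is the fitted concentration of half-maximal effect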)
# Chain of UniProt P16066 (P16066 whole entry, looked up): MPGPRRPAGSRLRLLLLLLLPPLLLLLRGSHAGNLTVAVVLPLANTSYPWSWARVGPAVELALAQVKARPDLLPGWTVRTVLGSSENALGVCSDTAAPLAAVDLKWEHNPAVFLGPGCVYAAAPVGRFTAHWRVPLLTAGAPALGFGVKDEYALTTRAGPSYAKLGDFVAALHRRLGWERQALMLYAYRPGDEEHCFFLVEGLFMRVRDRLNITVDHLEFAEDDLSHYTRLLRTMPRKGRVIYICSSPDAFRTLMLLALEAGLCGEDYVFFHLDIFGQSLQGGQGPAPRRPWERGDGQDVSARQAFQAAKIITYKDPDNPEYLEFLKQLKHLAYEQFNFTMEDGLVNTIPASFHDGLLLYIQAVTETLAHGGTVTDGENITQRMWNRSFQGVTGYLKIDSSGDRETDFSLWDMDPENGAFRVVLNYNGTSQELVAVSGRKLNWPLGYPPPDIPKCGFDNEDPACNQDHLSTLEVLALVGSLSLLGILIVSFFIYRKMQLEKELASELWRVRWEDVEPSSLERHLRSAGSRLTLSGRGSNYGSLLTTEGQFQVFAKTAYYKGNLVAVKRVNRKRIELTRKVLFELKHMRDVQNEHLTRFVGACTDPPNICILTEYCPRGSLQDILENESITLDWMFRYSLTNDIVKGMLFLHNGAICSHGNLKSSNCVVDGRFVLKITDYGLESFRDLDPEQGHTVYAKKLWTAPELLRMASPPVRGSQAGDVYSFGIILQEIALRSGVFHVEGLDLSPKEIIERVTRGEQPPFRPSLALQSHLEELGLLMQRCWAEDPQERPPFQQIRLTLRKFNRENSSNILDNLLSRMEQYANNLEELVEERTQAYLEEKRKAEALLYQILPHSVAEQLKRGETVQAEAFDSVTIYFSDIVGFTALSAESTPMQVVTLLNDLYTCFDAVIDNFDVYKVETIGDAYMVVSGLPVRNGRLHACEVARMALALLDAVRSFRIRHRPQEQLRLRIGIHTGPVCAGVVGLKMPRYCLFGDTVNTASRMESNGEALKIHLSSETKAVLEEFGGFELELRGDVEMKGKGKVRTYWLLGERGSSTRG
# In short: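 Receptor antagonism read as cGMP-dependent luminescence in hNpr1/pGS-40F HEK293 cells: pre-read after 30 min compound exposure, post-read 20 min after hNppA agonist at 0.1 nM final, all at room temperature, protected from light; A-71915 titration as control.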
# [11] = target: Atrial natriuretic peptide receptor 2 (Homo sapiens) (UniProt P20594); assay: Natriuretic polypeptide receptor (hNpr2) antagonism - Pilot subtype selectivity assay (AID 1347050; calls by dose curve; note: potency is the fitted concentration of half-maximal effect)
# Chain of UniProt P20594 (P20594 whole entry, looked up): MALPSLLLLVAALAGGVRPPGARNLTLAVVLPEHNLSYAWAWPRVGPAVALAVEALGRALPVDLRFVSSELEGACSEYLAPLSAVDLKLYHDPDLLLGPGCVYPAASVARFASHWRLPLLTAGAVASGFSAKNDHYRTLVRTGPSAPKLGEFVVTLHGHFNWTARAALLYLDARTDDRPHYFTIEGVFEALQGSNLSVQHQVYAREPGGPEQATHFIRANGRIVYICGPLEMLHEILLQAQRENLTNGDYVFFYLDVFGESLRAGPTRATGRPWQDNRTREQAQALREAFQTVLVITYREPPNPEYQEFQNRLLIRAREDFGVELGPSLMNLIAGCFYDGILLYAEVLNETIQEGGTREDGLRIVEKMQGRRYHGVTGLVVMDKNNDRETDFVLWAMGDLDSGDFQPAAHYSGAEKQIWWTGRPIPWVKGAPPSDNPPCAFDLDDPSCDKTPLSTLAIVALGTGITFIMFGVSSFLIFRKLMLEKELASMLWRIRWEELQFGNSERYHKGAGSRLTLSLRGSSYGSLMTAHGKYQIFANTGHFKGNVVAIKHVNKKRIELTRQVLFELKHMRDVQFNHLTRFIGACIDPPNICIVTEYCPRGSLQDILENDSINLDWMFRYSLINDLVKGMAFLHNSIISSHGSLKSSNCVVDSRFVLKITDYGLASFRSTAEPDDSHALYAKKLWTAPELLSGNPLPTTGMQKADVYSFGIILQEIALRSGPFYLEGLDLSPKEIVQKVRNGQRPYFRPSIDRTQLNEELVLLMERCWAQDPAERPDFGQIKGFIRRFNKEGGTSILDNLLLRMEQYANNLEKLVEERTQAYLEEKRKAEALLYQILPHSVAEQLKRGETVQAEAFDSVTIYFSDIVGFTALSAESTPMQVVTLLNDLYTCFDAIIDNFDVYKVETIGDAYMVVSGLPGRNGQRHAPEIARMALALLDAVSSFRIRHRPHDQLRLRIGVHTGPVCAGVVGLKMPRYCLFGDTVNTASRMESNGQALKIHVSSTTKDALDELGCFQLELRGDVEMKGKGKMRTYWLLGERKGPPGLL
# In short: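 Antagonist mode: compounds (LOPAC1280, seven 1:5 dilutions) added 30 min before 1 nM hNppC stimulation of hNpr2-HEK293 cGMP-sensor cells; luminescence read before and 20 min after agonist at ambient temperature.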
# [12] = P-glycoprotein substrates identified in KB-8-5-11 adenocarcinoma cell line, qHTS therapeutic library screen (AID 1346987); note: potency is the fitted concentration of half-maximal effect; nearly all actives have a fitted effect of over 65% in size
# In short: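 In this qHTS, P-gp-rich KB-8-5-11 cells received library compounds across a concentration range. Viability was quantified by luminescence after 72 h at 37 degree C.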
# Tags give direction and shape of the fitted curve.
smiles,measurement,setting,value
O=C(N[C@H]1CN2CCC1CC2)c1ccc(Cl)cc1,Potency,[1],"inconclusive [inhibitor, single point]"
same,Potency,[2],active: 14.8 µM
same,Potency,[3],inactive
O=c1cccc2n1CC1CNC[C@H]2C1,Potency,[2],"inconclusive [inhibitor, single point]"
Cn1c(CCCC(=O)O)nc2cc(N(CCCl)CCCl)ccc21,Potency,[4],"inconclusive [inhibitor, single point]"
same,Potency,[5],inactive
same,IC50 (viability decrease),[6],inactive
same,Potency,[7],inactive
same,Potency,[8],active: 20.9 µM
C=C(C)[C@H]1Cc2c(ccc3c2O[C@@H]2COc4cc(OC)c(OC)cc4[C@@H]2C3=O)O1,Potency,[9],"inconclusive [cytotoxic, partial curve]"
same,Potency,[4],active: 4.69 µM
same,Potency,[1],active: 2.96 µM
same,Potency,[3],active: 0.117 µM
same,Potency,[10],active: 0.135 µM
same,Potency,[11],active: 0.0826 µM
CCCCCC[C@H]1C(=O)O[C@H](C)[C@H](NC(=O)c2cccc(NC=O)c2O)C(=O)O[C@@H](C)[C@@H]1OC(=O)CC(C)C,Potency,[4],"inconclusive [inhibitor, full curve]"
same,Potency,[2],active: 0.0833 µM
same,Potency,[12],"inconclusive [inhibitor, full curve]"
CN[C@@H]1Cc2cccc3[nH]c(=O)n(c23)C1,Potency,[2],inactive
CC(C)c1cccc(C(C)C)c1O,Potency,[4],inactive
same,Potency,[3],inactive
N=c1c2c(-c3ccccc3)c(-c3ccccc3)n(Cc3ccccc3)c2ncn1C1CCC(O)CC1 (stereo not drawn),Potency,[4],"inconclusive [inhibitor, full curve]"
same,Potency,[2],active: 0.662 µM
same,Potency,[12],active: 0.935 µM
same,Potency,[8],active: 26.4 µM
CCOP(=O)(OCC)C(C)NC(=O)N(CCCl)N=O (stereo not drawn),Potency,[4],inactive
C#CCN(C)[C@H](C)Cc1ccccc1,Potency,[1],inactive
same,Potency,[2],inactive
